From PubChem BioAssay AID1460 (National Center for Advancing Translational Sciences (NCATS), 2008)
Where “and” joins values, the source holds several entries; their conditions need not be identical. Equal values may be shown once. About 5,800 (2.1%) of roughly 270,000 compounds were called active. This list was built around the results that the source calls inconclusive (neither active nor inactive); the mix of calls is not that of the screen. Calls come from the whole dose curve; as a rule, active = well fitted inhibition curve with a large enough effect; inconclusive = small, poorly fitted or top-dose-only effect; inactive = flat fitted curve, though single readings scatter. A potency beside an inconclusive call is a rough fit, not a confirmed value.

These molecules were tested against Microtubule-associated protein tau (Homo sapiens) (UniProt P10636) (assay: qHTS for Inhibitors of Tau Fibril Formation, Thioflavin T Binding). Details: recombinant tau K18 P301L, heparin-induced fibrillization, ThT fluorescence; series mostly up to 57.4 µM; activity, negative = inhibition: at the top concentration.
Method in brief: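 ThT emission at 510 nm, taken 1 hr after adding 30 uM dye, quantifies aggregates formed when 20 uM heparin acts on human tau K18 P301L for 6 hr at 37 C.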
% is set by controls: 0 for no effect and ±100 for the full control effect; potency is the fitted concentration of half-maximal effect; tags give direction and shape of the fitted curve.
Note: nearly all actives have a fitted effect of over 55% in size.

Sequence of UniProt P10636 (P10636 whole entry, looked up): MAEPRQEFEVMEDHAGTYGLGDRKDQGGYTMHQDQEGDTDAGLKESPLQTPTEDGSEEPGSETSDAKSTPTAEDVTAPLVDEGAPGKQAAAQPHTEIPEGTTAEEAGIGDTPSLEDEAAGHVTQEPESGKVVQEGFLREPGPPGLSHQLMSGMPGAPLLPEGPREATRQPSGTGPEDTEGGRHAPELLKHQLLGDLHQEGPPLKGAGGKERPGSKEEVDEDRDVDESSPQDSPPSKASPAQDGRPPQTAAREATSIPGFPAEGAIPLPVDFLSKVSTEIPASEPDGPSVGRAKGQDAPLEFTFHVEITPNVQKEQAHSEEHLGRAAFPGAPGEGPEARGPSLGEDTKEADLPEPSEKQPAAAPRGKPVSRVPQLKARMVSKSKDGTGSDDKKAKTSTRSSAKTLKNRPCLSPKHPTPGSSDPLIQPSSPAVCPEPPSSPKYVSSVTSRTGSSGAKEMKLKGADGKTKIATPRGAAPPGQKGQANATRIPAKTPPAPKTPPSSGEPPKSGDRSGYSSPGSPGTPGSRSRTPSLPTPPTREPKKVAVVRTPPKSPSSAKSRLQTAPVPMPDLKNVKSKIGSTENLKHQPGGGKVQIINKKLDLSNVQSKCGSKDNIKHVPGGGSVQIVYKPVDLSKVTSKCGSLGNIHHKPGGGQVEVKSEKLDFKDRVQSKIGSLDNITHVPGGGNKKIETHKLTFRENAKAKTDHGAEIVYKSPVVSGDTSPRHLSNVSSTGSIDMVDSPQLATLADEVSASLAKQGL

**Q.** For `COc1ccc(-c2[nH]c(-c3cccc(OC)c3)nc2SCC(=O)Nc2ccc3c(c2)OCO3)cc1`, which Potency is on record?
**A.** inconclusive: 8.91 µM [inhibitor, full curve]

**Q.** How did the “activity, negative = inhibition” value turn out when `CC(c1ccccc1)n1c(-c2ccncc2)n[nH]c1=S` (stereo not given) was run?
**A.** inactive: 2.39%

**Q.** For `COc1ccc(C(=O)NC(=S)NNC(=O)COc2ccccc2)cc1`, which Potency is on record?
**A.** inconclusive: 14.1 µM [inhibitor, partial curve]

**Q.** For `CCOC(=O)Cc1csc(NC(=O)c2cccc(OC)c2)n1`, which “activity, negative = inhibition” value is on record?
**A.** inactive: -5.65%

**Q.** For `COc1cccc(C(=O)NCc2ccc3c(c2)CCN3C(=O)c2ccncc2)c1`, which “activity, negative = inhibition” value is on record?
**A.** inactive: -1.82%

**Q.** With `COc1ccc(/C=C2\Sc3ccc(C(=O)NCc4cccnc4)cc3N(C)C2=O)cc1OC` as the molecule, how does the Potency read?
**A.** inconclusive: 14.1 µM [inhibitor, partial curve]

**Q.** `Cc1ccc(NC(=O)CSc2nnnn2-c2ccc3c(c2)OCO3)cc1C` was tested. Which Potency did it give?
**A.** inconclusive: 22.4 µM [activator, partial curve]

**Q.** For `Cc1nn(-c2ccccc2)c(C)c1/C=N\N1CCN(c2ccc(Cl)cc2)CC1`, which Potency is on record?
**A.** active: 8.91 µM

**Q.** `COc1ccc(OC)c2sc(NC(=O)c3ccc(S(=O)(=O)N4CCCC4)cc3)nc12` was tested. Which “activity, negative = inhibition” value did it give?
**A.** inactive: -4.07%

**Q.** `Cc1ccc(C)c(NC(=S)c2nc3ccccc3s2)c1` was tested. Which “activity, negative = inhibition” value did it give?
**A.** inactive: -19.5%

**Q.** `N#Cc1c(/N=C/c2ccc(Br)s2)sc2c1CCC2` was tested. Which Potency did it give?
**A.** inconclusive: 3.55 µM [inhibitor, partial curve]

**Q.** `COCCNC(=S)N=Nc1c(O)[nH]c2c(C)cc(C)cc12` was tested. Which Potency did it give?
**A.** inconclusive: 5.01 µM [inhibitor, partial curve, poor fit]

**Q.** Which Potency does the source give for `CCOC(=O)c1coc(CNC(=O)c2c(C)oc3c2CCCC3)c1` here?
**A.** inconclusive: 12.6 µM [inhibitor, partial curve]

**Q.** For `O=C(CSc1ccsc1[N+](=O)[O-])N1CCCCCC1`, which Potency is on record?
**A.** inconclusive: 39.8 µM [inhibitor, single point]

**Q.** Which Potency does the source give for `O=C(C1CCN(S(=O)(=O)c2cccc3cccnc23)CC1)N1CCN(c2ccccc2)CC1` here?
**A.** inconclusive: 25.1 µM [inhibitor, single point]

**Q.** With `Nc1nc(-c2c[nH]c3ccccc23)cs1` as the molecule, how does the Potency read?
**A.** active: 15.8 µM

**Q.** How did the Potency turn out when `CCc1nnc(NC(=O)c2nc(S(=O)(=O)Cc3ccc(C)cc3)ncc2Cl)s1` was run?
**A.** inconclusive: 3.16 µM [inhibitor, full curve]

**Q.** With `COc1ccc(NC(=O)c2cccc(NC(=O)c3ccco3)c2)c(OC)c1` as the molecule, how does the Potency read?
**A.** inconclusive: 20 µM [inhibitor, partial curve]

**Q.** How did the Potency turn out when `CC(/C=N/Nc1ncc(C)c(=O)[nH]1)=C\c1ccccc1` was run?
**A.** inconclusive: 3.98 µM [inhibitor, partial curve]

**Q.** Which Potency does the source give for `COc1ccc(-c2cc(CCCC(=O)NCc3ccccn3)no2)cc1` here?
**A.** inconclusive: 11.2 µM [inhibitor, partial curve]

**Q.** For `O=C(c1ccc(N2CCOCC2)cc1)c1cccs1`, which Potency is on record?
**A.** inconclusive: 25.1 µM [inhibitor, partial curve, poor fit]

**Q.** Which Potency does the source give for `CCc1ccc(C(=O)N/N=C/c2ccc(Cl)cc2Cl)nc1` here?
**A.** inconclusive: 17.8 µM [inhibitor, partial curve, poor fit]

**Q.** How did the “activity, negative = inhibition” value turn out when `Cc1ccc(S(=O)(=O)NC(N)=NCCc2ccc(Cl)cc2)cc1C` was run?
**A.** inactive: 20.8%

**Q.** With `CCCCOc1ccc(-c2nn(-c3ccccc3)cc2C2NC(=O)NC(C)=C2C(=O)OCC)cc1` (stereo not given) as the molecule, how does the Potency read?
**A.** inconclusive: 14.1 µM [inhibitor, partial curve]

**Q.** For `O=C(CCn1cnc2ccccc21)N=Nc1c(O)[nH]c2ccccc12`, which Potency is on record?
**A.** inconclusive: 15.8 µM [inhibitor, partial curve]

**Q.** How did the “activity, negative = inhibition” value turn out when `CCN(c1ccccc1)S(=O)(=O)c1cc(C(=O)Nc2ccc(F)c(F)c2)ccc1F` was run?
**A.** inactive: 8.37%

**Q.** For `O=C(Nc1nccs1)c1ccc(-c2ccc([N+](=O)[O-])cc2)o1`, which Potency is on record?
**A.** inconclusive: 1 µM [inhibitor, full curve]

**Q.** `COc1ccc2ccccc2c1CN1CCN(C(=O)c2ccccc2)CC1` was tested. Which Potency did it give?
**A.** inconclusive: 31.6 µM [inhibitor, single point]

**Q.** With `COc1ccc(-c2nn(-c3ccccc3)cc2N)cc1` as the molecule, how does the Potency read?
**A.** inconclusive: 17.8 µM [inhibitor, partial curve]

**Q.** How did the “activity, negative = inhibition” value turn out when `O=C(O)c1oc2ccccc2c1CSCc1ccccc1` was run?
**A.** inactive: 2%

**Q.** For `O=C(CC(c1ccc(F)cc1)c1ccco1)N1CCOCC1` (stereo not given), which “activity, negative = inhibition” value is on record?
**A.** inactive: -7.6%

**Q.** `Cc1cc(N/N=C/c2c(O)ccc3ccccc23)nc(-c2ccccc2O)n1` was tested. Which “activity, negative = inhibition” value did it give?
**A.** inactive: 9.42%

**Q.** `C=CCn1c(SCc2n[nH]c(=S)n2-c2ccccc2)nnc1-c1ccccc1` was tested. Which Potency did it give?
**A.** inconclusive: 28.2 µM [inhibitor, single point]

**Q.** How did the “activity, negative = inhibition” value turn out when `O=C(COc1ccc(Br)cc1)N(Cc1ccccc1)c1ccccn1` was run?
**A.** inactive: -11.5%

**Q.** For `Cc1cccc(Cn2c(=O)c3c(nc4n3CCCN4Cc3ccccc3)n(C)c2=O)c1`, which Potency is on record?
**A.** inconclusive: 3.55 µM [inhibitor, full curve, poor fit]

**Q.** How did the “activity, negative = inhibition” value turn out when `O=C(O)C1C2C=CC(O2)C1C(=O)Nc1ccc(S(=O)(=O)Nc2ccccc2)cc1` (stereo not given) was run?
**A.** inactive: 0.885%

**Q.** For `COc1ccc(-c2nc3cc(C)ccn3c2NCc2ccc3c(c2)OCO3)cc1`, which Potency is on record?
**A.** inconclusive: 28.2 µM [inhibitor, partial curve]

**Q.** With `Cc1ccc(N2CCN(c3ccc(NCc4nc5ccccc5n4C)cc3)CC2)cc1` as the molecule, how does the Potency read?
**A.** active: 2.51 µM

**Q.** With `COc1ccc(OCc2ccc(-c3nc4ccccc4c(=O)n3N)o2)cc1` as the molecule, how does the Potency read?
**A.** inconclusive: 14.1 µM [inhibitor, partial curve]

**Q.** For `Cc1nn2c(-c3ccncc3)ccnc2c1Br`, which “activity, negative = inhibition” value is on record?
**A.** inactive: -8.92%

**Q.** Which Potency does the source give for `CCCC[C@@H]1C[C@H]1C(NC(=O)c1cccs1)c1ccc(Cl)cc1` (stereo not given in full) here?
**A.** inconclusive: 0.708 µM [inhibitor, single point]

**Q.** For `O=c1c2c3c(sc2[nH]c(=S)n1Cc1ccco1)CCC3`, which Potency is on record?
**A.** inconclusive: 31.6 µM [inhibitor, partial curve]

**Q.** `CCOC(=O)c1cnc(SC2CC(=O)N(c3cccc(OC)c3)C2=O)nc1N` (stereo not given) was tested. Which “activity, negative = inhibition” value did it give?
**A.** inactive: -5.03%

**Q.** How did the Potency turn out when `CCN(CC)CCCN1C=C2C(=O)C(C)(OC(=O)C3CCCC3)C(=O)C(c3ccccc3)=C2C=C1CCCC(=O)OC` (stereo not given) was run?
**A.** inactive

**Q.** `O=C(NCCNC(=O)c1cc(OCC(F)(F)F)ccc1OCC(F)(F)F)Nc1ccc(OC(F)(F)F)cc1` was tested. Which “activity, negative = inhibition” value did it give?
**A.** inactive: 10.3%

**Q.** `COc1ccccc1N1CCN(C(=O)c2ccc3[nH]c4c(c3c2)CCCC4)CC1` was tested. Which Potency did it give?
**A.** inconclusive: 12.6 µM [inhibitor, partial curve]

**Q.** `CCc1cccc(NC(=O)CN2C(=O)COc3ccc(S(=O)(=O)Nc4ccccc4)cc32)c1` was tested. Which Potency did it give?
**A.** inconclusive: 10 µM [activator, partial curve]

**Q.** Which Potency does the source give for `CC(C)C(=O)NC(c1ccc([N+](=O)[O-])cc1)c1c(O)ccc2ccccc12` (stereo not given) here?
**A.** active: 20 µM

**Q.** How did the Potency turn out when `O=C(NC(=S)Nc1nc(-c2ccccc2)cs1)c1cncc(Br)c1` was run?
**A.** inconclusive: 3.98 µM [inhibitor, partial curve]

**Q.** For `Cc1ccc(C(=O)N2c3ccc(C)cc3C(C)(c3ccccc3)CC2(C)C)cc1` (stereo not given), which Potency is on record?
**A.** inconclusive: 39.8 µM [inhibitor, single point]

**Q.** Which Potency does the source give for `CN(c1ccccc1)S(=O)(=O)c1cc(C(=O)Nc2nc3ccccc3[nH]2)ccc1Cl` here?
**A.** inconclusive: 35.5 µM [activator, single point]

**Q.** For `CC1=NOC(=O)/C1=C\c1ccc2c(c1)OCO2`, which Potency is on record?
**A.** inconclusive: 17.8 µM [inhibitor, partial curve]

**Q.** Which “activity, negative = inhibition” value does the source give for `CC1(C)Cc2c(sc3nnn(Cc4ccccc4)c(=O)c23)CO1` here?
**A.** inactive: 1.27%

**Q.** Which Potency does the source give for `O=C(c1cc2ccccc2oc1=O)N1CCN(c2ccc(Cl)cc2)CC1` here?
**A.** inconclusive: 25.1 µM [inhibitor, partial curve, poor fit]

**Q.** Which Potency does the source give for `COc1cc(/C=N/NC(=O)COc2c(C)cc([N+](=O)[O-])cc2C)ccc1OC(=O)c1ccccc1Br` here?
**A.** inconclusive: 12.6 µM [inhibitor, partial curve]

**Q.** With `COc1ccccc1N1CCN(c2ncnc3c2cnn3-c2cc(Cl)ccc2C)CC1` as the molecule, how does the Potency read?
**A.** inconclusive: 4.47 µM [inhibitor, partial curve]

**Q.** With `CCc1ccc(C(=O)c2cn(CC(=O)Nc3cccc(OC)c3)c3ccc(OC)cc3c2=O)cc1` as the molecule, how does the “activity, negative = inhibition” value read?
**A.** inactive: 1.81%

**Q.** Which Potency does the source give for `O=c1cc(-c2ccccc2Cl)oc2c(NS(=O)(=O)c3cccc4nsnc34)ccc(O)c12` here?
**A.** inconclusive: 39.8 µM [inhibitor, single point]

**Q.** With `Cc1ccc(C)c(NC(=O)CN2CCCN(Cc3cccc(Cl)c3)S2(=O)=O)c1` as the molecule, how does the “activity, negative = inhibition” value read?
**A.** inactive: -8.32%

**Q.** With `O=C(N/N=C/c1c(O)n(-c2ccccc2Cl)c(=O)c2ccccc12)c1cccnc1` as the molecule, how does the “activity, negative = inhibition” value read?
**A.** inactive: -15.3%

**Q.** For `Cc1cccc(N2C(=O)N(CC(=O)C(C)(C)C)c3ccccc3S2(=O)=O)c1C`, which “activity, negative = inhibition” value is on record?
**A.** inactive: -0.535%

**Q.** Which “activity, negative = inhibition” value does the source give for `Cc1ccc2nc(-c3ccncc3)c(NC3CCCCC3)n2c1` here?
**A.** inactive: -13%

**Q.** Which Potency does the source give for `COc1ccc(OC2C(O)COC2/C=C/C#Cc2ccccc2)cc1` (stereo not given) here?
**A.** inconclusive: 7.08 µM [inhibitor, single point]

**Q.** How did the Potency turn out when `COc1ccc2c(=O)c(-c3ccc4c(c3)OCO4)coc2c1` was run?
**A.** inconclusive: 2.82 µM [inhibitor, full curve] and inconclusive: 2.51 µM [inhibitor, full curve]

**Q.** With `O=C(CNC(=O)c1ccccc1)NC1(C(=O)NC2CCCCC2)CCCCC1` as the molecule, how does the “activity, negative = inhibition” value read?
**A.** inactive: 4.15%

**Q.** Which Potency does the source give for `Cc1ccc2c(c1)-c1c(ssc1=S)C(C)(C)N2C(=O)c1ccco1` here?
**A.** inconclusive: 15.8 µM [inhibitor, partial curve]

**Q.** Which Potency does the source give for `Cc1cc(C(=O)Nc2nc3c(s2)CCCC3)cs1` here?
**A.** inconclusive: 14.1 µM [inhibitor, partial curve]

**Q.** With `Cc1cccc(-n2ncc(C(=O)N3CCN(c4ccc(Cl)cc4)CC3)c2C2CCN(C(=O)OC(C)(C)C)CC2)c1` as the molecule, how does the Potency read?
**A.** inconclusive: 2.82 µM [inhibitor, partial curve, poor fit]

**Q.** How did the Potency turn out when `O=Cc1c(OCc2ccccc2)ccc2ccccc12` was run?
**A.** inconclusive: 20 µM [inhibitor, partial curve]

**Q.** For `N#CCCN1CCN(C(=O)c2c(N)no[n+]2[O-])CC1`, which Potency is on record?
**A.** inconclusive: 28.2 µM [inhibitor, partial curve]
